According to PubChem BioAssay AID1508623 (National Center for Advancing Translational Sciences (NCATS), 2021):
Among all 48,000 compounds or so, about 450 (0.94%) were called active. Inconclusive results (about 19%) are left out. Calls come from the whole dose curve; as a rule, active = well fitted inhibition curve with a large enough effect; inconclusive = small, poorly fitted or top-dose-only effect; inactive = no such curve, though single readings can be large or run the other way. Some of the results follow.

Experiment: Primary qHTS for Identification of Small Molecule Inhibitors of Huntingtin Promoter Activity; note: nearly all actives have a fitted effect of over 50% in size
Details: HEK293 HTT promoter firefly luciferase reporter (activity 0% = vehicle and -100% = no light), 24 h; series mostly up to 57.5 µM; activity change, negative = inhibition: at the top concentration
Method in brief: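 Luminescence was read after Dual-Glo reagent and a 10 min room-temperature incubation. Values were normalized to vehicle (0% activity) and zero RLU (-100% activity). Reporter HEK293 cells had been exposed to compounds (up to 57.5 uM final) for 24 h.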
Potency is the fitted concentration of half-maximal effect.

Row | Structure (SMILES) | activity change, negative = inhibition | Potency
1 | Cc1sc(NC(=O)COc2ccc(C(C)(C)C)cc2)c(C(=O)OC(C)C)c1C | inactive: 1.26% | –
2 | CCOc1cc(C2c3c(oc4ccccc4c3=O)C(=O)N2Cc2ccccc2Cl)ccc1O (configuration not stated) | inactive: -11.5% | –
3 | COc1cccc(NC(=O)C2CCN(S(=O)(=O)c3cc(-c4noc(C)n4)ccc3C)CC2)c1 | – | active: 12600 nM
4 | COc1cc(-c2noc(-c3cc(C)[nH]n3)n2)cc(OC)c1OC | inactive: 77.3% | –
5 | CCn1cc(C(=O)N2CCN(c3ccccc3)CC2)c(=O)c2cc(S(=O)(=O)N3CCC(C)CC3)ccc21 | inactive: -5.54% | –
6 | Cc1onc(-c2c(Cl)cccc2Cl)c1C(=O)N[C@@H]1C(=O)N2[C@@H]1SC(C)(C)[C@@H]2C(=O)O | inactive: 5.21% | –
7 | CCOc1ccc(NC(=O)c2cn3c4c(ccc(Cl)c4c2=O)OC(C)C3)cc1 (configuration not stated) | inactive: -7.72% | –
8 | CCN1CCN(C(=O)c2cnn(-c3cccc(C)c3)c2C2CCN(C(=O)OC(C)(C)C)CC2)CC1 | inactive: 5.84% | –
9 | COc1cccc(CNC(=O)c2cccn2-c2nnc(N3CCCC3)s2)c1 | inactive: -9.18% | –
10 | Cc1cc(NC(=O)Nc2ccc(N(C)C)cc2)c2cc(F)cc(F)c2n1 | inactive: 0.759% | –
11 | COc1ccc(NC(=O)N(Cc2ccco2)C2CCN(C(C)=O)CC2)c(OC)c1 | inactive: -15% | –
12 | COc1ccc(CNC(=O)C2CCN(S(=O)(=O)c3cn(C)cn3)CC2)cc1 | inactive: -7.93% | –
13 | Cc1cccc(C)c1NC(=O)CN(C)S(=O)(=O)c1ccc2c(c1)n(C)c(=O)c(=O)n2C | inactive: -11.1% | –
14 | CCc1ccc(OCC(=O)NCC(c2ccc(OC)cc2)N2CCOCC2)cc1 (configuration not stated) | inactive: -16.8% | –
15 | CCSc1nc(=O)c2c(n1C)NC(=O)CC2c1ccc(O)cc1OC (configuration not stated) | inactive: -6.93% | –
16 | COc1ccc(-n2c(=O)c3sc4ccccc4c3n(Cc3ccccc3)c2=O)cc1 | inactive: -9.07% | –
17 | CC(=O)c1cccc(NC(=O)Cn2c(C)c3cnn(-c4ccccc4)c(=O)c3c2C)c1 | inactive: -26.6% | –
18 | Cc1ccc2c(CNC3CCC(C)CC3)c(C(=O)O)n(Cc3cccc(F)c3)c2c1 (configuration not stated) | inactive: -9.59% | –
19 | CCN(CC)CCNC(=O)c1ccc2c(c1)N(Cc1ccccc1)C(=O)c1ccccc1S2=O (configuration not stated) | inactive: -20.1% | –
20 | COc1cc(NC(=O)c2cc3nc(-c4ccccc4)cc(-c4ccccc4)n3n2)c(OC)cc1Cl | inactive: 5.38% | –
21 | CC1CCN(c2nc3ccc(C(=O)NCc4ccc(Cl)cc4)cc3s2)CC1 | – | active: 251 nM
22 | COc1ccc(C2CC(=O)N(CC(=O)Nc3ccc(C(F)(F)F)cc3)c3ccccc3S2)cc1 (configuration not stated) | inactive: -22.9% | –
23 | COc1ccc(C(=O)Nc2ccc3nc(SCC(=O)N4CCOCC4)sc3c2)cc1 | inactive: -4.22% | –
24 | CCc1nn(CC(=O)NC2CC2)c(=O)c2cc3ccccc3n12 | inactive: 33.1% | –
25 | COc1cccc(CNC(=O)c2c3c(nc4ccccc24)C(=O)N(C2CCCCC2)C3)c1 | inactive: -13.4% | –

Row | Structure (SMILES) | activity change, negative = inhibition | Potency
26 | Cn1cc(C(=O)NCc2ccccc2)c(=O)c2cc(S(=O)(=O)N3CCCCCC3)ccc21 | inactive: -5.28% | –
27 | Cc1ccccc1Oc1nc2c(c(=O)n(C)c(=O)n2C)n1Cc1ccc(Br)cc1 | inactive: -9.44% | –
28 | COc1cc(OC)c(NC(=O)c2cc(S(=O)(=O)N3CCCC3)cn2C)cc1Cl | inactive: -7.98% | –
29 | CC(NC(=O)CSc1n[nH]c(-c2ccccc2)n1)c1nc2ccccc2n1C (configuration not stated) | inactive: -5.23% | –
30 | CCCCc1ccc(Nc2ncnc3c2cnn3-c2ccc(C)cc2)cc1 | inactive: -19.8% | –
31 | CCC1CCCCN1C(=O)Cn1c(=O)n(CC2CCC(C(=O)NC)CC2)c(=O)c2sccc21 (configuration not stated) | inactive: -1.59% | –
32 | O=C(Nc1ccc(OC(F)(F)F)cc1)NC1COc2ccccc2C1 (configuration not stated) | inactive: -6.76% | –
33 | COC(=O)c1ccc(C(=O)OC)c(NC(=O)c2c(-c3ccccc3)c(-c3ccccc3)nn(C)c2=O)c1 | inactive: -23% | –
34 | Cc1ccc2c(c1)nc(SCC(O)c1ccc(Br)cc1)n2C (configuration not stated) | inactive: -3.14% | –
35 | COc1ccc(N2CCN(Cc3nc4c(c(=O)[nH]c(=O)n4C)n3Cc3ccccc3)CC2)cc1 | inactive: -12.8% | –
36 | Cn1c(=O)c2sccc2n2c(CCC(=O)NCc3ccccc3)nnc12 | inactive: 4.27% | –
37 | O=C(NCc1ccc(F)cc1)c1cc2c(s1)-c1ccccc1SC2 | inactive: 1.29% | –
38 | COc1cc2c(=O)n(CCC(=O)NCC3CCCO3)c(=O)n(CC(=O)Nc3c(C)cccc3C)c2cc1OC (configuration not stated) | inactive: -10.9% | –
39 | CCCCOC(=O)c1ccc(NC(=O)/C(C#N)=C/c2ccc(-c3ccccc3)o2)cc1 | inactive: -24.2% | –
40 | CCOc1ccc(CCNC(=O)C2Cc3ccccc3N2C(=O)CC)cc1OCC (configuration not stated) | inactive: -5.25% | –
41 | Cc1ccc(N(CC(=O)Nc2ccc(Br)c(C)c2)S(=O)(=O)c2cccs2)cc1 | inactive: -26% | –
42 | CCc1ccc(CNC(=O)Cc2c(C(=O)O)c(C)cn2C)cc1 | inactive: -16.3% | –
43 | CCc1nnc(SCc2nc(-c3ccccc3)oc2C)c2cc3sccc3n12 | inactive: -9.49% | –
44 | Cc1ccc(C)c(NC(=O)Cn2c(=O)n(Cc3cccs3)c(=O)c3cccnc32)c1 | inactive: -27.6% | –
45 | COc1ccc(-c2cn3nc(N4CCC(C(=O)Nc5cc(Cl)ccc5OC)CC4)sc3n2)cc1 | inactive: 13% | –
46 | CC(C)(C)OC(=O)N1CCC(c2c(C(=O)N3CCN(c4ncccn4)CC3)cnn2-c2ccc(F)cc2F)CC1 | inactive: -0.846% | –
47 | COc1ccc(OC)c(NC(=O)C(CCSC)NS(=O)(=O)c2cccs2)c1 (configuration not stated) | inactive: 7.54% | –
48 | COc1ccc(-c2nc(SCC(=O)N3CCC(C)CC3)n[nH]2)cc1 | inactive: -10.4% | –
49 | Nc1c(C(=O)Nc2ccc(Cl)cc2F)sc2nc(-c3cccs3)ccc12 | inactive: 38.6% | –
50 | C[N+](C)(C)CCCCCC[N+](C)(C)C | inactive: -2.68% | –

Row | Structure (SMILES) | activity change, negative = inhibition | Potency
51 | COc1ccc(C(=O)Nc2ccc(C(=O)OCc3cc(=O)n4nc(C(C)C)sc4n3)cc2)cc1 | inactive: 33.4% | –
52 | Cc1ccc(Cl)cc1NC(=O)/C(C#N)=C\c1cn(Cc2ccc(F)cc2)c2ccccc12 | inactive: -3.42% [at 11.5 µM] | –
53 | CCOC(=O)c1c(S(=O)(=O)NCC(=O)NCc2ccc(C)cc2)c(C)n(C)c1C | inactive: 7.55% | –
54 | Cc1ccccc1C(=O)Nc1ccc2nc(SCCOc3ccccc3)sc2c1 | inactive: -18.7% | –
55 | CC1C(=O)OC2C(O)C34C5CC(C(C)(C)C)C36C(OC(=O)C6O)OC4(C(=O)O5)C12O (configuration not stated) | inactive: 7.75% | –
56 | Fc1ccc(CNc2cc(-c3ccccc3)nc3nncn23)cc1 | inactive: -27.2% | –
57 | COc1ccc(-c2nn(-c3ccc(F)cc3F)c3c2cnc2ccc(F)cc23)cc1 | inactive: 3.13% | –
58 | N#Cc1ccccc1NC(=O)C(=O)NCC(c1cccnc1)N1CCN(c2ccccc2)CC1 (configuration not stated) | inactive: -27.6% | –
59 | Cc1cccc(C(=O)Nc2cccc(C(=O)OCc3cc(=O)n4nc(C5CC5)sc4n3)c2)c1 | inactive: 6.48% | –
60 | Cc1ccc(OCC(=O)Nc2ccc(-c3nc4ccc(C)cc4o3)cc2)cc1 | inactive: 67.5% | –
61 | CCOc1ccc(C(=O)Nc2ccc3nc(SCC(=O)N4CCOCC4)sc3c2)cc1 | inactive: -24.7% | –
62 | CCN1CCN(C(=O)c2ccc3c(c2)N(Cc2cc(C)ccc2C)C(=O)c2ccccc2S3(=O)=O)CC1 | inactive: -17.1% | –
63 | O=C(NCCc1ccccc1)c1cnc2sc(N3CCOCC3)nn2c1=O | inactive: 16.4% | –
64 | CCOC(=O)c1c(C)oc2nc(C)nc(NCCc3ccc(S(N)(=O)=O)cc3)c12 | inactive: -28.4% | –
65 | CCCSCCCNC(=O)CN1C(=O)COc2ccc(S(=O)(=O)N3CCCCCC3)cc21 | inactive: -21.7% | –
66 | O=C(Nc1ccc(F)cc1F)C1CCCN1S(=O)(=O)c1cccc2nsnc12 (configuration not stated) | inactive: -10.2% [at 11.5 µM] | –
67 | CCCOc1ccc(CNC(=O)C2CCN(c3nn4c(=O)cc(C)nc4s3)CC2)cc1 | inactive: -21.8% | –
68 | COc1cc(CNCCSc2nnnn2C)ccc1OCc1c(F)cccc1Cl | inactive: -14.6% | –
69 | Cc1cccc(-c2nnc(SCCC(=O)O)o2)c1 | – | active: 251 nM
70 | CCOc1ccc(CCNC(=O)c2cnc3c(-c4ccccc4)c(C)nn3c2C)cc1OCC | inactive: -14.7% | –
71 | Cc1cccc(NC(=O)CN2C(=O)CCc3ccccc32)c1C | inactive: -26.7% | –
72 | COc1ccc(N2CCN(c3oc(/C=C/c4cccc(OC)c4)nc3C#N)CC2)cc1 | inactive: -9.42% | –
73 | CC(C)c1ccc(OCC(=O)Nc2cc(-c3nc4ncccc4o3)ccc2Cl)cc1 | inactive: -3.61% | –
74 | O=[N+]([O-])c1ccc(C(c2sc3nc(-c4ccco4)nn3c2O)N2CCC3(CC2)OCCO3)cc1 (configuration not stated) | inactive: -13.8% | –
75 | COc1ccccc1CNC(=O)C(C)n1c(=O)cc(C(F)(F)F)c2c(C)nn(C)c21 (configuration not stated) | inactive: 21% | –

Row | Structure (SMILES) | activity change, negative = inhibition | Potency
76 | COc1cc(C2CC(=O)Nc3cc4c(cc32)OCCO4)cc(OC)c1O (configuration not stated) | inactive: -26.3% | –
77 | Nc1ccn(C2CO[C@H](CO)O2)c(=O)n1 (some centres not stated) | inactive: 4.56% | –
78 | Cc1oncc1C(=O)Nc1ccc(C(F)(F)F)cc1 | inactive | –
79 | O=c1[nH]c2cc(C(F)(F)F)c(N3CCOCC3)cc2n(CP(=O)(O)O)c1=O | inactive: -8.23% | –
80 | CCCCC(=O)Nc1ccc(OCc2cc(=O)n3ccc(C)cc3n2)cc1 | inactive: -0.235% | –
81 | CCCCN(CCCC)c1nc(-c2ccccc2)nc2ccccc12 | inactive: -23.3% | –
82 | COc1ccc(C(Cl)=C(c2ccc(OC)cc2)c2ccc(OC)cc2)cc1 | inactive: 0.64% | –
83 | CCC(=O)Nc1ccc(C)cc1-c1nc2ccccc2n(Cc2ccccc2)c1=O | inactive: 3.59% | –
84 | CCN(C(=O)c1cc2c(Cl)nc3ccc(C)cc3c2s1)c1cc(OC)ccc1OC | inactive: -15.8% | –
85 | Cc1oc(-c2cccc(Cl)c2)nc1CSCC(=O)O | inactive: -29.4% | –
86 | CC1(c2ccccc2)CC(C)(C)N(C(=O)c2ccccc2Cl)c2ccccc21 (configuration not stated) | inactive: -28.3% | –
87 | COc1ccccc1C(=O)Nc1c(C(=O)Nc2ccc(C)cc2)oc2ccccc12 | inactive: -4.19% | –
88 | CCOC(=O)c1c(N)sc2c1CCN(Cc1ccccc1)C2 | inactive: -5.09% | –
89 | COc1ccccc1CNC(=O)c1cc(-c2ccccc2)n[nH]1 | inactive: 13% | –
90 | Cc1ccc(N2C(=O)C(CC(=O)Nc3ccccc3)N(CCC3=CCCCC3)C2=O)cc1 (configuration not stated) | inactive: -0.321% | –
91 | Cc1ccc2nc(NC(=O)CSc3ncc(C(=O)Nc4ccccc4)c(=O)n3C)sc2c1 | inactive: 6.22% | –
92 | CCOc1ccccc1N(CC)C(=O)c1cc2ccc3cccnc3c2[nH]1 | inactive: -13.9% | –
93 | Cn1c2ccc(F)cc2c2nnc(SCCN3CCCCC3)nc21 | inactive: -3.21% | –
94 | CCOc1ccccc1NC(=O)CN1C(=O)C(=O)c2ccccc21 | inactive: -11.5% | –
95 | CC(C)NC(=O)c1sc2ncccc2c1-n1cccc1 | inactive: 6.17% | –
96 | CCOc1ccc(CCNC(=O)c2sc3nc4n(c(=O)c3c2C)CCCC4)cc1 | inactive: -7.42% | –
97 | O=C(O)Cn1nc(N2CCN(c3ccccc3)CC2)ccc1=O | inactive: 2.42% | –
